The other results are listed elsewhere or left out.
T1: UNK ZnF1-3 (human, UniProt Q9C0B0 31-174)
T1 sequence: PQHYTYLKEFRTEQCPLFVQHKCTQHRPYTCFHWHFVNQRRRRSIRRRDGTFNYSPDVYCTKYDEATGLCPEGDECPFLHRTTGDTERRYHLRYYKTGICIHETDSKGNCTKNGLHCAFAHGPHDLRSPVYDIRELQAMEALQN

B1: chr16:13687521:13687522:+_ENSMUSG00000022684_ENSMUST00000023365|mus_mus|FALSE|FALSE (ssRNA)
RNA: GGGAGUUCUACAGUCCGACGAUCGGCUGCAAGACUUUGGACUACAUCAUUAUUCUGCUGAAUGUCUUCAACUCGCAUUCUAAUGGCAUCAGGAAAUAACUUUUCAAUGGCAUCCCUGAGGAGAAUGUUGACUUUAGGAAAACCCAACAGAGGAUUGAGCAUCA
B2: chr1:109605286:109605287:-_ENSG00000197780_ENST00000461096|hu_mus|hu_hu_hu_mus_True|8_18 (ssRNA)
RNA: GGGAGUUCUACAGUCCGACGAUCAAGUUUCAGAGUAACAUUCAGUAACCUCUUUAAAUGCAAUUAUCCUUAUUAUAAGCUAAGCAGAAUAAUAAUUUAAUACCGUAAGUGAACUACCACAAAACCUGUGUAUUCAGAAAUGGUCAACAGAGGAUUGAGCAUCA
B3: 97528413_97530788_701_CDS_ENSMUSG00000038437_ENSMUST00000044730|mouse|control|control (ssRNA)
RNA: GGGAGUUCUACAGUCCGACGAUCGCUGCCUCCUCCUGCUCCUCCUCCUCCCCCGCUGGAGUGCCGGGAUGUCUUCAUCUUGCUGAAGUGGUAUUUGCAGUAGCCGCAGUACUUGACGUUGUCCACCUCCAGGACUUCUUCCUCCAACAGAGGAUUGAGCAUCA
B4: chr12:4461469:4461470:+_ENSG00000078237_ENST00000179259|hu_mus|FALSE|FALSE (ssRNA)
RNA: GGGAGUUCUACAGUCCGACGAUCGCUUUCUCUCUGCCCUGCCUUGCCCAGGAUUAGCUGACAAAUGAAAUCAAAGAAAUCCUUUCCGCGCAUCUUUACCUGCUCAACUGUCUCUCCUCCAGGCGGGGUGAACAUGGGGCACUCCAACAGAGGAUUGAGCAUCA
B5: 47001521_47005262_636_CDS_ENSG00000069345_ENST00000317089|human|control|control (ssRNA)
RNA: GGGAGUUCUACAGUCCGACGAUCACUACACUUUUGGACAGCUCCAGACUUUCCGCCUUGGCCACUGCAUGCACUACAGAGCACAUUCUUGCUAAGUUGUAGUUUGGUUGUCUUGCCAUUAUACAGAUCUUCUAAAGAUACUUUCAACAGAGGAUUGAGCAUCA
B6: chr11:100882373:100882374:+_ENSMUSG00000019302_ENSMUST00000044721|mus_mus|mus_mus_mus_hu_True|1_48 (ssRNA)
RNA: GGGAGUUCUACAGUCCGACGAUCUUCCUGGUUUGUGUUGAUUUCCUUCAGUUCAUUUUCAAUCUUCUCAAAAUUGGCCUCUAAGUCGAUCAUGUCCCGGGGGAAGGGAACCUCUGGGUUUUCACCGGUGUCCAUAAUUGGGAUCAACAGAGGAUUGAGCAUCA
B7: chr22:19452774:19452775:-_ENSG00000070010_ENST00000399523|hu_mus|FALSE|FALSE (ssRNA)
RNA: GGGAGUUCUACAGUCCGACGAUCCUUCUCAUUGUAGUUGAUAGCAAUCACAUCUCCAGUCGUCAGACAGGCGAAGUUUCUCAAUGCAUUUUCUAAUACCGCUUUAGGGUUGGUAAUAUCCAGGAAGUCUGGGCUCUGAGGCUGCAACAGAGGAUUGAGCAUCA
B8: 91665463_91715946_2812_CDS_ENSMUSG00000040506_ENSMUST00000045705|mouse|control|control (ssRNA)
RNA: GGGAGUUCUACAGUCCGACGAUCCCACCACUGGAGCCUGUAGGUAGUAUUGGCAAUGUUACUGGCCACAGCAGACUGUCCAUCUCCAAUUACUGCCCCUGCCAGGACCCUGUUAACAGAAGAAUGAGUAGCCAAGCCAGGCUGCAACAGAGGAUUGAGCAUCA
B9: chr2:120444880:120444881:+_ENSMUSG00000027285_ENSMUST00000124187|mus_mus|FALSE|FALSE (ssRNA)
RNA: GGGAGUUCUACAGUCCGACGAUCUCACUUGGCCCUGGAGGUUUCGGUGUGAGCCUUAGGAAAAAAAGGUAAAGGAGGCACUAUGUCAAGUUCAUGAAGAUGGCGUUCUUCAGUUAGCAUUUUGGGGAUAUACAAGGAAAUUUCCAACAGAGGAUUGAGCAUCA
B10: chr9:114657494:114657495:+_ENSMUSG00000032434_ENSMUST00000035007|mus_mus|FALSE|FALSE (ssRNA)
RNA: GGGAGUUCUACAGUCCGACGAUCGAUUGUCUCAGGUAUUUUGUUAUAGAAACAGUCAGCAGACUAAUAGUUGGUAACACUAAAGUAGCUCAGAUUUGCUGUUAAUUCUCAAUAGGUCUAAAUGAUAUUUACAGCACAGCUUGACAACAGAGGAUUGAGCAUCA
B11: chr7:28127222:28127223:-_ENSMUSG00000089832_ENSMUST00000003857|mus_mus|FALSE|FALSE (ssRNA)
RNA: GGGAGUUCUACAGUCCGACGAUCUUUUAUUGGAGAUAGUGGCUUUGGCUUUUAGAAAAGGAGAGAGGUGGGAACCUGGCGACACAGAUUACACCAAGGAGCCCCUGGCCCUGGCUCCAACAGGAAGCCCCCUCCCCAGUUCCACAACAGAGGAUUGAGCAUCA
B12: 45362850_45362970_6999_3pUTR_ENSG00000175387_ENST00000356825|human|control|control (ssRNA)
RNA: GGGAGUUCUACAGUCCGACGAUCGGUCUGUCCAUGAAAGGAAAAUGUACACAGACAAAUUAAGAACAUUUUACCAGGAUCUGAGAUUUAAACAAUGGAACAAUUGUUUUAACUGUUAGAAUGACCCCAACUGUUAAGUUUGUCCAACAGAGGAUUGAGCAUCA
B13: 5830942_5832723_454_3pUTR_ENSG00000099219_ENST00000339450|human|control|control (ssRNA)
RNA: GGGAGUUCUACAGUCCGACGAUCCCAAAAGGUAGUGCACGGUCAGAAUUUCAUUUUCUGGACUUCCUGUAGUCCUGGGGCCAAUGGAGGUUAUGUGUUCAAGAUAAUCCCUGGCUUGGAGCGCGUCGAACUCCCCGCGGUGUCCAACAGAGGAUUGAGCAUCA
B14: chr11:60966614:60966615:-_ENSMUSG00000042506_ENSMUST00000041683|mus_mus|FALSE|FALSE (ssRNA)
RNA: GGGAGUUCUACAGUCCGACGAUCGAGCAGCGGCCGCUUAGUUUUGCCACAGCUAUGUCAUUCCAUCGCAAUUCGCUAGCUAAGGAGCUGGGCUGGGCCCUGUACUGCUCUUUUAUAGCCUGUAAGUGAAAAAACAAAAUCUUACAACAGAGGAUUGAGCAUCA

Each binder was assayed against T1, UNK ZnF1-3 (assay: nsRBNS (natural sequence RNA bind-n-seq); RBNS binding buffer (assumed for nsRBNS): 25 mM Tris pH 7.5, 150 mM KCl, 3 mM MgCl2, 0.01% Triton X-100, 500 ug/ml BSA, 20 U/ml SUPERase-In, 4 C; UNK is unkempt and MSI1 is Musashi-1; names of the RNAs are library labels; protein concentration not given here; high values mean tight binding).

Binder | binding signal [enrichment R]
B1 | 1.16
B2 | 0.556
B3 | 0.795
B4 | 1.33
B5 | 0.589
B6 | 0.61
B7 | 0.735
B8 | 0.888
B9 | 1.72
B10 | 0.78
B11 | 1.52
B12 | 0.915
B13 | 0.939
B14 | 0.656

Source: publication PMC12136788
